In all, about 33,000 sequences were measured (“E-score (-0.5 to 0.5)”: median about -0.012, highest 2% from about 0.27 on). This is one part of the list.

For the assay, the target named is T1, Vhr1 (UniProt P40522).
T1 sequence: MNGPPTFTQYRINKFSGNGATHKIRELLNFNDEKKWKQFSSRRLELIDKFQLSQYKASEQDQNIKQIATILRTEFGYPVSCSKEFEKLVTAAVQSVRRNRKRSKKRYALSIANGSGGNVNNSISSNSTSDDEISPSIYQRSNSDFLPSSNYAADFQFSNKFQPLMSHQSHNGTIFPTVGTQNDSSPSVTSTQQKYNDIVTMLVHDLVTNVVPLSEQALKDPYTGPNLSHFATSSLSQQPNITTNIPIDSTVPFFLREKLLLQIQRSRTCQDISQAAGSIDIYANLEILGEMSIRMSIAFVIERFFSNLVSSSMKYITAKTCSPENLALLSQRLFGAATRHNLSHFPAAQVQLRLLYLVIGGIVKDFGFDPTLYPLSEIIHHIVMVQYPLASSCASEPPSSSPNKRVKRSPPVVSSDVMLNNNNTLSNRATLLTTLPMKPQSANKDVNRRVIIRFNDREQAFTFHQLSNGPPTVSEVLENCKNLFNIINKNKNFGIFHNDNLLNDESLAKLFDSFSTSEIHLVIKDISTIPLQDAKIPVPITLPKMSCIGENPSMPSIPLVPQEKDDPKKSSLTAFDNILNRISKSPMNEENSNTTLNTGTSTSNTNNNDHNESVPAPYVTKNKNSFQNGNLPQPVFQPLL
Kind of assay: PBM E-score (8-mer binding enrichment) (E-score (-0.5 to 0.5)); higher = stronger / more preferred TF binding; most listed sequences are background and not binding sites. Conditions: protein concentration: 200 nM; construct: GST-full length. Put shortly:
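Detection of bound protein used fluorescent anti-GST, with scans normalised by masliner. The proteins were GST-tagged yeast transcription factors applied at about 100-200 nM to universal all-10-mer Agilent arrays made double-stranded by primer extension. Each ungapped eight-base word, pooled with its reverse complement, was scored with an E-score from the Universal PBM Analysis Suite.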
For GAGCGGCC, the “PBM E-score” value was -0.141.

As to ACAAGCGA, the “PBM E-score” value was 0.19.

In the case of CCTGATAC, the “PBM E-score” value came out at 0.116.

As for CAGTGTTC, the “PBM E-score” value turned out to be 0.109.

As for AAATCTGT, the “PBM E-score” value was determined as 0.0348.

For AAAATAGT, the “PBM E-score” value is -0.0544.

Regarding ATCTCGTC, the “PBM E-score” value is -0.115.

As to CCACTGCG, the “PBM E-score” value came out at 0.174.

In the case of AGCCCAAG, the “PBM E-score” value is -0.127.

With AAAGCGGT, the “PBM E-score” value was -0.08.

As for ATGTTCGC, the “PBM E-score” value was -0.114.

With GATCTCTA, the “PBM E-score” value was -0.157.

Turning to CCTTCGAC, the “PBM E-score” value is -0.0593.

As for ACTTAACG, the “PBM E-score” value was -0.211.

Turning to CACGCTGC, the “PBM E-score” value amounted to 0.132.

In the case of CAAGAGGC, the “PBM E-score” value is -0.0919.

Consider AGGTCCAC, for which the “PBM E-score” value is -0.176.

In the case of ACGAAGAC, the “PBM E-score” value stood at 0.0865.

Consider CGCTCTGA, for which the “PBM E-score” value is -0.106.

Turning to CCCCGGTC, the “PBM E-score” value came to 0.0272.

On to ACCGTTCG, for which the “PBM E-score” value was -0.0425.

With CATCAGCA, the “PBM E-score” value was 0.067.

In the case of CGTGGCTA, the “PBM E-score” value was -0.0862.

Take GATCCATC: the “PBM E-score” value is 0.194.

For the sequence CATTGGGA, the “PBM E-score” value was -0.137.

As for AATCAATA, the “PBM E-score” value turned out to be 0.0533.

On to TGCCCCCA, for which the “PBM E-score” value is -0.269.

CCAGTTGC: the “PBM E-score” value was -0.0928.

For ATCATTAA, the “PBM E-score” value is 0.0987.

For the sequence TGAGAGCA, the “PBM E-score” value stood at 0.00884.

For ACAGCGAA, the “PBM E-score” value was 0.0614.

Consider CCCCTCCG, for which the “PBM E-score” value is -0.0395.

On to AACCAATA, for which the “PBM E-score” value amounted to 0.115.

Take AAGTGTTG: the “PBM E-score” value was 0.0568.

Turning to AACGAACC, the “PBM E-score” value stood at 0.0314.

TACAGTCA: the “PBM E-score” value was found to be 0.294.

In the case of AGTACTCC, the “PBM E-score” value was 0.167.

In the case of CGTCAGCA, the “PBM E-score” value is -0.11.

With ACACGGGC, the “PBM E-score” value was 0.0165.

AATTTTCT: the “PBM E-score” value is -0.243.

Turning to AACAGTCT, the “PBM E-score” value is -0.0629.

Regarding GATCTAAC, the “PBM E-score” value was -0.204.

As to AATATATG, the “PBM E-score” value was determined as 0.19.

For the sequence CCCGCCAC, the “PBM E-score” value amounted to 0.321.

As to AAAGGGCG, the “PBM E-score” value came out at 0.0461.

For TACGCCAA, the “PBM E-score” value is -0.241.

With CTTCGTCA, the “PBM E-score” value stood at 0.0835.

As for CGATACAC, the “PBM E-score” value is -0.00965.

CGCCGAGA: the “PBM E-score” value was -0.0468.

Consider ATAAATCC, for which the “PBM E-score” value is -0.0537.

As to CCCGATTC, the “PBM E-score” value came to 0.0194.

In the case of AACAAAGT, the “PBM E-score” value stood at 0.155.

Turning to ATTTGAAC, the “PBM E-score” value is 0.0616.

In the case of ACACTGAC, the “PBM E-score” value came out at 0.239.

Consider CAAGCTCC, for which the “PBM E-score” value is -0.168.

With AACTGTGC, the “PBM E-score” value is -0.135.

Turning to GTGCACTA, the “PBM E-score” value was 0.0224.

Regarding AAGGAAGG, the “PBM E-score” value was -0.209.

In the case of GCTGTCAA, the “PBM E-score” value was -0.125.

For TCAGAACA, the “PBM E-score” value stood at 0.00034.

Consider CACTAGTC, for which the “PBM E-score” value was 0.12.

Turning to CCCACGGG, the “PBM E-score” value is -0.00586.

In the case of ACCAGTGC, the “PBM E-score” value is -0.193.

Consider AAGTGAGT, for which the “PBM E-score” value is 0.171.

For CGGTAAGA, the “PBM E-score” value was -0.211.

As for TAAGTATA, the “PBM E-score” value amounted to 0.0666.

For ATAGACCA, the “PBM E-score” value is 0.0646.

As to TCCCCAGA, the “PBM E-score” value was -0.109.

Regarding ATCACCGA, the “PBM E-score” value amounted to 0.107.

As for GCGAGTAA, the “PBM E-score” value was determined as 0.2.

CATTGCGC: the “PBM E-score” value turned out to be 0.0481.

Take GGCACCAC: the “PBM E-score” value is -0.0489.

Regarding AATTCCCT, the “PBM E-score” value is -0.19.

In the case of AACACACC, the “PBM E-score” value came to 0.27.

Consider ATATTGCC, for which the “PBM E-score” value was -0.0289.

Turning to ACAAAGTA, the “PBM E-score” value was determined as 0.0223.

On to AGTACATC, for which the “PBM E-score” value is 0.0779.

Consider AGGCGCCC, for which the “PBM E-score” value is -0.173.

On to CGACAGTA, for which the “PBM E-score” value came out at 0.0703.

As to AGTAATAC, the “PBM E-score” value was 0.0646.

For the sequence AAAGTAAC, the “PBM E-score” value was -0.04.

Turning to ACCTCTAG, the “PBM E-score” value was -0.0496.

In the case of AGTGAATA, the “PBM E-score” value is 0.00606.

In the case of GGCGCAAC, the “PBM E-score” value was -0.0634.

For ACGCCCAA, the “PBM E-score” value was 0.107.

As for CGGCTGGA, the “PBM E-score” value was determined as 0.0242.

(Values after the supplement of paper PMC3334620.)
